# The supplement of paper PMC8728848
# Some of the results follow.
# B1: HPL (Tachypleus tridentatus) (protein)
# chain: MEDDCTCVTDRSLEGKLMKHPSTPAVYQILDGCRRLVPNPPTYNNIYKNWECIQSNILEKLLCKCDSLSNGAELIKGSGDTVYLLSNGVKRPIADPETFNGFCFDWNKIKTYSDIVINSLSTGPIIIIKHHHHHH
# Legend:
# Test in all cases: glycan array binding signal (z-score within array); higher = stronger binding
# Details in all cases: glycan notation: IUPAC condensed, linker removed
# [1] = biological target: Glc(b1-6)Glc
# How it was run: (§1)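 The binding signal is a Z-score computed within each array and averaged over linkers. Arrays of the same protein sequence at different concentrations or buffers were also averaged together. Data originate from 3228 arrays in the Consortium for Functional Glycomics database, kept only where the protein sequence was available.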
# [2] = biological target: GlcA(b1-3)Gal
# How it was run: as §1
# [3] = biological target: GlcA(b1-3)GlcNAc
# How it was run: as §1
# [4] = biological target: GlcA(b1-6)Gal
# How it was run: as §1
# [5] = biological target: GlcA3S(b1-3)Gal(b1-4)GlcNAc(b1-2)Man
# How it was run: as §1
# [6] = biological target: GlcA3S(b1-3)Gal(b1-4)GlcNAc(b1-3)Gal(b1-4)Glc
# How it was run: as §1
# [7] = biological target: GlcNAc(a1-3)Gal(b1-4)GlcNAc
# How it was run: as §1
# [8] = biological target: GlcNAc(a1-4)Gal(b1-3)GlcNAc
# How it was run: as §1
# [9] = biological target: GlcNAc(a1-4)Gal(b1-4)GalNAc
# How it was run: as §1
# [10] = biological target: GlcNAc(a1-4)Gal(b1-4)GlcNAc
# How it was run: as §1
# [11] = biological target: GlcNAc(a1-4)Gal(b1-4)GlcNAc(b1-3)Gal(b1-4)Glc
# How it was run: as §1
# [12] = biological target: GlcNAc(a1-4)Gal(b1-4)GlcNAc(b1-3)Gal(b1-4)GlcNAc
# How it was run: as §1
# [13] = biological target: GlcNAc(a1-4)Gal(b1-4)GlcNAc(b1-3)Gal(b1-4)GlcNAc(b1-3)Gal(b1-4)GlcNAc
# How it was run: as §1
# [14] = biological target: GlcNAc(a1-4)Gal(b1-4)GlcNAc(b1-3)Gal(b1-4)[Fuc(a1-3)]GlcNAc(b1-3)Gal(b1-4)[Fuc(a1-3)]GlcNAc
# How it was run: as §1
# [15] = biological target: GlcNAc(a1-6)Gal(b1-4)GlcNAc
# How it was run: as §1
# [16] = biological target: GlcNAc(b1-2)Gal(b1-3)GalNAc
# How it was run: as §1
# [17] = biological target: GlcNAc(b1-2)Man(a1-3)[GlcNAc(b1-2)Man(a1-6)]Man(b1-4)GlcNAc(b1-4)GlcNAc
# How it was run: as §1
# [18] = biological target: GlcNAc(b1-2)Man(a1-3)[GlcNAc(b1-2)Man(a1-6)]Man(b1-4)GlcNAc(b1-4)[Fuc(a1-6)]GlcNAc
# How it was run: as §1
# [19] = biological target: GlcNAc(b1-2)Man(a1-3)[GlcNAc(b1-4)][GlcNAc(b1-2)Man(a1-6)]Man(b1-4)GlcNAc(b1-4)GlcNAc
# How it was run: as §1
# [20] = biological target: GlcNAc(b1-2)Man(a1-3)[GlcNAc(b1-4)][GlcNAc(b1-2)Man(a1-6)]Man(b1-4)GlcNAc(b1-4)[Fuc(a1-6)]GlcNAc
# How it was run: as §1
# [21] = biological target: GlcNAc(b1-2)[GlcNAc(b1-4)]Man(a1-3)[GlcNAc(b1-2)Man(a1-6)]Man(b1-4)GlcNAc(b1-4)GlcNAc
# How it was run: as §1
# [22] = biological target: GlcNAc(b1-2)[GlcNAc(b1-4)]Man(a1-3)[GlcNAc(b1-4)][GlcNAc(b1-2)Man(a1-6)]Man(b1-4)GlcNAc(b1-4)GlcNAc
# How it was run: as §1
# [23] = biological target: GlcNAc(b1-2)[GlcNAc(b1-4)]Man(a1-3)[GlcNAc(b1-4)][GlcNAc(b1-2)[GlcNAc(b1-6)]Man(a1-6)]Man(b1-4)GlcNAc(b1-4)GlcNAc
# How it was run: as §1
# [24] = biological target: GlcNAc(b1-2)[GlcNAc(b1-4)]Man(a1-3)[GlcNAc(b1-4)][GlcNAc(b1-2)[GlcNAc(b1-6)]Man(a1-6)]Man(b1-4)GlcNAc(b1-4)[Fuc(a1-6)]GlcNAc
# How it was run: as §1
# [25] = biological target: GlcNAc(b1-2)[GlcNAc(b1-6)]Man(a1-6)[GlcNAc(b1-2)Man(a1-3)]Man(b1-4)GlcNAc(b1-4)GlcNAc
# How it was run: as §1
# [26] = biological target: GlcNAc(b1-2)[GlcNAc(b1-6)]Man(a1-6)[GlcNAc(b1-2)Man(a1-3)]Man(b1-4)GlcNAc(b1-4)[Fuc(a1-6)]GlcNAc
# How it was run: as §1
# [27] = biological target: GlcNAc(b1-2)[GlcNAc(b1-6)]Man(a1-6)[GlcNAc(b1-4)][GlcNAc(b1-2)Man(a1-3)]Man(b1-4)GlcNAc(b1-4)GlcNAc
# How it was run: as §1
# [28] = biological target: GlcNAc(b1-3)Fuc
# How it was run: as §1
# [29] = biological target: GlcNAc(b1-3)Gal
# How it was run: as §1
# [30] = biological target: GlcNAc(b1-3)Gal(b1-3)GalNAc
# How it was run: as §1
# [31] = biological target: GlcNAc(b1-3)Gal(b1-4)Glc
# How it was run: as §1
# [32] = biological target: GlcNAc(b1-3)Gal(b1-4)GlcNAc
# How it was run: as §1
# [33] = biological target: GlcNAc(b1-3)Gal(b1-4)GlcNAc(b1-2)Man(a1-3)[GlcNAc(b1-3)Gal(b1-4)GlcNAc(b1-2)Man(a1-6)]Man(b1-4)GlcNAc(b1-4)GlcNAc
# How it was run: as §1
# [34] = biological target: GlcNAc(b1-3)Gal(b1-4)GlcNAc(b1-2)Man(a1-3)[GlcNAc(b1-3)Gal(b1-4)GlcNAc(b1-2)Man(a1-6)]Man(b1-4)GlcNAc(b1-4)[Fuc(a1-6)]GlcNAc
# How it was run: as §1
# [35] = biological target: GlcNAc(b1-3)Gal(b1-4)GlcNAc(b1-2)[GlcNAc(b1-3)Gal(b1-4)GlcNAc(b1-6)]Man(a1-6)[GlcNAc(b1-3)Gal(b1-4)GlcNAc(b1-2)Man(a1-3)]Man(b1-4)GlcNAc(b1-4)GlcNAc
# How it was run: as §1
# [36] = biological target: GlcNAc(b1-3)Gal(b1-4)GlcNAc(b1-3)Gal(b1-4)GlcNAc
# How it was run: as §1
# [37] = biological target: GlcNAc(b1-3)Gal(b1-4)GlcNAc(b1-3)Gal(b1-4)GlcNAc(b1-2)Man(a1-3)[GlcNAc(b1-3)Gal(b1-4)GlcNAc(b1-3)Gal(b1-4)GlcNAc(b1-2)Man(a1-6)]Man(b1-4)GlcNAc(b1-4)GlcNAc
# How it was run: as §1
# [38] = biological target: GlcNAc(b1-3)Gal(b1-4)GlcNAc(b1-3)Gal(b1-4)GlcNAc(b1-2)Man(a1-3)[GlcNAc(b1-3)Gal(b1-4)GlcNAc(b1-3)Gal(b1-4)GlcNAc(b1-2)Man(a1-6)]Man(b1-4)GlcNAc(b1-4)[Fuc(a1-6)]GlcNAc
# How it was run: as §1
# [39] = biological target: GlcNAc(b1-3)Gal(b1-4)GlcNAc(b1-3)Gal(b1-4)GlcNAc(b1-2)[GlcNAc(b1-3)Gal(b1-4)GlcNAc(b1-3)Gal(b1-4)GlcNAc(b1-6)]Man(a1-6)[GlcNAc(b1-3)Gal(b1-4)GlcNAc(b1-3)Gal(b1-4)GlcNAc(b1-2)Man(a1-3)]Man(b1-4)GlcNAc(b1-4)[Fuc(a1-6)]GlcNAc
# How it was run: as §1
# [40] = biological target: GlcNAc(b1-3)Gal(b1-4)GlcNAc(b1-3)Gal(b1-4)GlcNAc(b1-3)Gal(b1-4)GlcNAc(b1-2)Man(a1-3)[GlcNAc(b1-3)Gal(b1-4)GlcNAc(b1-3)Gal(b1-4)GlcNAc(b1-3)Gal(b1-4)GlcNAc(b1-2)Man(a1-6)]Man(b1-4)GlcNAc(b1-4)GlcNAc
# How it was run: as §1
# [41] = biological target: GlcNAc(b1-3)Gal(b1-4)GlcNAc(b1-3)Gal(b1-4)GlcNAc(b1-3)Gal(b1-4)GlcNAc(b1-2)Man(a1-3)[GlcNAc(b1-3)Gal(b1-4)GlcNAc(b1-3)Gal(b1-4)GlcNAc(b1-3)Gal(b1-4)GlcNAc(b1-2)Man(a1-6)]Man(b1-4)GlcNAc(b1-4)[Fuc(a1-6)]GlcNAc
# How it was run: as §1
# [42] = biological target: GlcNAc(b1-3)Gal(b1-4)GlcNAc(b1-3)Gal(b1-4)GlcNAc(b1-3)Gal(b1-4)GlcNAc(b1-2)[GlcNAc(b1-3)Gal(b1-4)GlcNAc(b1-3)Gal(b1-4)GlcNAc(b1-3)Gal(b1-4)GlcNAc(b1-6)]Man(a1-6)[GlcNAc(b1-3)Gal(b1-4)GlcNAc(b1-3)Gal(b1-4)GlcNAc(b1-3)Gal(b1-4)GlcNAc(b1-2)Man(a1-3)]Man(b1-4)GlcNAc(b1-4)[Fuc(a1-6)]GlcNAc
# How it was run: as §1
# [43] = biological target: GlcNAc(b1-3)Gal(b1-4)GlcNAc(b1-3)Gal(b1-4)GlcNAc(b1-3)Gal(b1-4)GlcNAc(b1-3)Gal(b1-4)GlcNAc(b1-2)Man(a1-3)[GlcNAc(b1-3)Gal(b1-4)GlcNAc(b1-3)Gal(b1-4)GlcNAc(b1-3)Gal(b1-4)GlcNAc(b1-3)Gal(b1-4)GlcNAc(b1-2)Man(a1-6)]Man(b1-4)GlcNAc(b1-4)GlcNAc
# How it was run: as §1
# [44] = biological target: GlcNAc(b1-3)Gal(b1-4)GlcNAc(b1-3)Gal(b1-4)GlcNAc(b1-3)Gal(b1-4)GlcNAc(b1-3)Gal(b1-4)GlcNAc(b1-2)Man(a1-3)[GlcNAc(b1-3)Gal(b1-4)GlcNAc(b1-3)Gal(b1-4)GlcNAc(b1-3)Gal(b1-4)GlcNAc(b1-3)Gal(b1-4)GlcNAc(b1-2)Man(a1-6)]Man(b1-4)GlcNAc(b1-4)[Fuc(a1-6)]GlcNAc
# How it was run: as §1
# [45] = biological target: GlcNAc(b1-3)Gal(b1-4)GlcNAc(b1-3)Gal(b1-4)GlcNAc(b1-3)Gal(b1-4)GlcNAc(b1-3)Gal(b1-4)GlcNAc(b1-2)[GlcNAc(b1-3)Gal(b1-4)GlcNAc(b1-3)Gal(b1-4)GlcNAc(b1-3)Gal(b1-4)GlcNAc(b1-3)Gal(b1-4)GlcNAc(b1-6)]Man(a1-6)[GlcNAc(b1-3)Gal(b1-4)GlcNAc(b1-3)Gal(b1-4)GlcNAc(b1-3)Gal(b1-4)GlcNAc(b1-3)Gal(b1-4)GlcNAc(b1-2)Man(a1-3)]Man(b1-4)GlcNAc(b1-4)[Fuc(a1-6)]GlcNAc
# How it was run: as §1
binder,measurement,setting,value
B1,glycan array binding signal (z-score),[1],0.723
same,glycan array binding signal (z-score),[2],0.253
same,glycan array binding signal (z-score),[3],-0.279
same,glycan array binding signal (z-score),[4],0.657
same,glycan array binding signal (z-score),[5],-0.322
same,glycan array binding signal (z-score),[6],-0.135
same,glycan array binding signal (z-score),[7],-0.255
same,glycan array binding signal (z-score),[8],-0.342
same,glycan array binding signal (z-score),[9],-0.096
same,glycan array binding signal (z-score),[10],-0.317
same,glycan array binding signal (z-score),[11],-0.436
same,glycan array binding signal (z-score),[12],-0.398
same,glycan array binding signal (z-score),[13],-0.271
same,glycan array binding signal (z-score),[14],0.294
same,glycan array binding signal (z-score),[15],-0.429
same,glycan array binding signal (z-score),[16],-0.4
same,glycan array binding signal (z-score),[17],-0.062
same,glycan array binding signal (z-score),[18],-0.154
same,glycan array binding signal (z-score),[19],-0.288
same,glycan array binding signal (z-score),[20],-0.283
same,glycan array binding signal (z-score),[21],-0.244
same,glycan array binding signal (z-score),[22],-0.138
same,glycan array binding signal (z-score),[23],-0.202
same,glycan array binding signal (z-score),[24],-0.385
same,glycan array binding signal (z-score),[25],0.042
same,glycan array binding signal (z-score),[26],-0.185
same,glycan array binding signal (z-score),[27],-0.139
same,glycan array binding signal (z-score),[28],-0.353
same,glycan array binding signal (z-score),[29],-0.08
same,glycan array binding signal (z-score),[30],-0.007
same,glycan array binding signal (z-score),[31],-0.293
same,glycan array binding signal (z-score),[32],-0.294
same,glycan array binding signal (z-score),[33],0.011
same,glycan array binding signal (z-score),[34],0.104
same,glycan array binding signal (z-score),[35],0.395
same,glycan array binding signal (z-score),[36],-0.199
same,glycan array binding signal (z-score),[37],0.175
same,glycan array binding signal (z-score),[38],0.119
same,glycan array binding signal (z-score),[39],-0.19
same,glycan array binding signal (z-score),[40],-0.2
same,glycan array binding signal (z-score),[41],0.124
same,glycan array binding signal (z-score),[42],-0.068
same,glycan array binding signal (z-score),[43],0.291
same,glycan array binding signal (z-score),[44],0.072
same,glycan array binding signal (z-score),[45],-0.187
